# Reference: the supplement of paper PMC11417369
# Some of the results follow.
# Test system: PF3D7_0420300 AP2 domain 1 (GST-tagged)
# Assay: gcPBM binding intensity (ln(normalized median fluorescence intensity)); higher = stronger DNA binding
# Summary of the method: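 The highest Masliner-normalised natural-log median intensity across replicate spots of either probe orientation is reported as binding intensity. GST-tagged P. falciparum DNA-binding domains expressed in E. coli were applied for 1 h to an Agilent 4 × 180k array of primer-extended double-stranded 36-bp intergenic genomic probes plus negative controls, and bound protein was detected with Alexa488 anti-GST antibody and scanned at 488 nm.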
row,Sequence,gcPBM binding intensity (ln)
1,ATTAAATAATAATAATGTACGTATTATATTAATACA [XGTACX_site5439],9.13
2,ATTCTTTACTCATAAAATTATATTATATAAACTTTT [XGTACX_negctrl_site554],9.19
3,CTCTTTAAAAATATGGGTACAAAAAAAAAAAAAATA [XGTACX_site6185],9.02
4,AAAACAGTGACAACTCGTACTTATATTTTTTTTTGT [XGTACX_site4968],9.29
5,AGGCCCTATGTTGTTACACACATAGAATGATACATC [CACACA_site1266],9.46
6,GAATAAATAAATAAATGTACATATATATTTATTTAT [XGTACX_site243],9.06
7,ATATGTATTTATATATGTTTGAATTTTTTTTTTTTT [CACACA_negctrl_site5],9.19
8,GTTCGAAGTATAATTTGTACATATAAAATGGTTCCC [XGTACX_site382],9.08
9,ATTTGATCAACAAAACGTACACATATTTTCATGTGT [XGTACX_site447],9.35
10,CACATATAGTTATATGCACACATCTTACACATATAT [CACACA_site3692],9.63
11,TATCTGTATTTATATACACACATATTCTTTTTACAC [CACACA_site4798],9.8
12,AAAATCACAAAACACACACACACAAAAAAAAAAAAA [CACACA_site1443],9.81
13,AAAAAAGTAAAAAAAGCACACACGAAAAAAAATAAA [CACACA_site2233],9.89
14,ATGGTGCAACATTATGCACACCGTTAAATAACTAAT [CACACA_site9280],9.18
15,GTTTGAAGAACTATAAATGTATAAATAAAAGTTTAG [TGCATGCA_negctrl_site222],8.97
16,CATGGGCAAATATTCTCACACATAAACATAAACATA [CACACA_site4597],9.17
17,GGGAATTATGAAAAAAGTACAGAACAAAAGTAAAAG [XGTACX_site2861],9.49
18,ATATAGTAAAATTATACACACATGAATTTTCCCATG [CACACA_site1770],9.54
19,TTTTTTTTTTTTTTTTGTACTCATAAAAATATATTA [XGTACX_site3458],8.48
20,TACAAAAATGAAAAAAGTACATATCATTTAATATAA [XGTACX_site8066],9.2
21,ATTACATGATATATCACACACACATATAAATATATA [CACACA_site2830],9.95
22,CATATATATATATATACACACACACCGTCCGTGTTA [CACACA_site8975],9.7
23,TAAGTCGCCAAAAGGTGTACACATAATGCATTATCA [XGTACX_site8852],9.23
24,AGTATAGTTATAAATTGTACATATTATTTATTTTAT [XGTACX_site949],9.29
